Data: the supplement of paper PMC8728848
Some of the results follow.

Assays:
Assay in all cases: glycan array binding signal (z-score within array); higher = stronger binding
Conditions in all cases: glycan notation: IUPAC condensed, linker removed
[1] = biological target: GalNAc(a1-3)GalNAc(a1-3)Gal(a1-4)Gal(b1-4)GlcNAc
How it was run: (§1)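 Glycan array binding is given as a within-array Z-score, which can be read as non-binding when negative. The arrays, 3228 of them, came from the Consortium for Functional Glycomics database and were retained only where the protein sequence was available. Z-scores were averaged across arrays of the same protein sequence at different concentrations or buffers and across linkers.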

[2] = biological target: GalNAc(a1-3)GalNAc(b1-3)Gal(a1-4)Gal(b1-4)Glc
How it was run: as §1

[3] = biological target: GalNAc(a1-3)GalNAc(b1-3)Gal(a1-4)Gal(b1-4)GlcNAc
How it was run: as §1

GalNAc(b1-3)Gal = biological target: GalNAc(b1-3)Gal
How it was run: as §1

[4] = biological target: GalNAc(b1-3)Gal(a1-4)Gal(b1-4)GlcNAc
How it was run: as §1

[5] = biological target: GalNAc(b1-3)Gal(a1-4)Gal(b1-4)GlcNAc(b1-3)Gal(b1-4)Glc
How it was run: as §1

[6] = biological target: GalNAc(b1-3)Gal(a1-6)Gal(b1-4)Glc
How it was run: as §1

GalNAc(b1-3)GalNAc = biological target: GalNAc(b1-3)GalNAc
How it was run: as §1

GalNAc(b1-4)Gal(b1-4)Glc = biological target: GalNAc(b1-4)Gal(b1-4)Glc
How it was run: as §1

GalNAc(b1-4)GlcNAc = biological target: GalNAc(b1-4)GlcNAc
How it was run: as §1

[7] = biological target: GalNAc(b1-4)GlcNAc(b1-2)Man(a1-3)[GalNAc(b1-4)GlcNAc(b1-2)Man(a1-6)]Man(b1-4)GlcNAc(b1-4)GlcNAc
How it was run: as §1

GalNAc(b1-4)GlcNAc6S = biological target: GalNAc(b1-4)GlcNAc6S
How it was run: as §1

GalNAc(b1-6)GalNAc = biological target: GalNAc(b1-6)GalNAc
How it was run: as §1

GalNAc3S(b1-4)GlcNAc = biological target: GalNAc3S(b1-4)GlcNAc
How it was run: as §1

GalNAc3S(b1-4)GlcNAc3S = biological target: GalNAc3S(b1-4)GlcNAc3S
How it was run: as §1

GalNAc4S6S(b1-4)GlcNAc = biological target: GalNAc4S6S(b1-4)GlcNAc
How it was run: as §1

GalNAc6S(b1-4)GlcNAc = biological target: GalNAc6S(b1-4)GlcNAc
How it was run: as §1

Glc(a1-4)Glc = biological target: Glc(a1-4)Glc
How it was run: as §1

[8] = biological target: Glc(a1-4)Glc(a1-4)Glc(a1-4)Glc
How it was run: as §1

Glc(a1-6)Glc(a1-6)Glc = biological target: Glc(a1-6)Glc(a1-6)Glc
How it was run: as §1

[9] = biological target: Glc(a1-6)Glc(a1-6)Glc(a1-6)Glc
How it was run: as §1

Glc(b1-4)Glc = biological target: Glc(b1-4)Glc
How it was run: as §1

Glc(b1-6)Glc = biological target: Glc(b1-6)Glc
How it was run: as §1

GlcA(b1-3)Gal = biological target: GlcA(b1-3)Gal
How it was run: as §1

GlcA(b1-3)GlcNAc = biological target: GlcA(b1-3)GlcNAc
How it was run: as §1

GlcA(b1-6)Gal = biological target: GlcA(b1-6)Gal
How it was run: as §1

[10] = biological target: GlcNAc(a1-3)Gal(b1-4)GlcNAc
How it was run: as §1

[11] = biological target: GlcNAc(a1-4)Gal(b1-3)GlcNAc
How it was run: as §1

[12] = biological target: GlcNAc(a1-4)Gal(b1-4)GalNAc
How it was run: as §1

[13] = biological target: GlcNAc(a1-4)Gal(b1-4)GlcNAc
How it was run: as §1

[14] = biological target: GlcNAc(a1-4)Gal(b1-4)GlcNAc(b1-3)Gal(b1-4)Glc
How it was run: as §1

[15] = biological target: GlcNAc(a1-4)Gal(b1-4)GlcNAc(b1-3)Gal(b1-4)GlcNAc
How it was run: as §1

[16] = biological target: GlcNAc(a1-4)Gal(b1-4)GlcNAc(b1-3)Gal(b1-4)GlcNAc(b1-3)Gal(b1-4)GlcNAc
How it was run: as §1

[17] = biological target: GlcNAc(a1-4)Gal(b1-4)GlcNAc(b1-3)Gal(b1-4)[Fuc(a1-3)]GlcNAc(b1-3)Gal(b1-4)[Fuc(a1-3)]GlcNAc
How it was run: as §1

[18] = biological target: GlcNAc(a1-6)Gal(b1-4)GlcNAc
How it was run: as §1

[19] = biological target: GlcNAc(b1-2)Gal(b1-3)GalNAc
How it was run: as §1

[20] = biological target: GlcNAc(b1-2)Man(a1-3)[GlcNAc(b1-2)Man(a1-6)]Man(b1-4)GlcNAc(b1-4)GlcNAc
How it was run: as §1

[21] = biological target: GlcNAc(b1-2)Man(a1-3)[GlcNAc(b1-2)Man(a1-6)]Man(b1-4)GlcNAc(b1-4)[Fuc(a1-6)]GlcNAc
How it was run: as §1

[22] = biological target: GlcNAc(b1-2)Man(a1-3)[GlcNAc(b1-4)][GlcNAc(b1-2)Man(a1-6)]Man(b1-4)GlcNAc(b1-4)GlcNAc
How it was run: as §1

[23] = biological target: GlcNAc(b1-2)[GlcNAc(b1-4)]Man(a1-3)[GlcNAc(b1-2)Man(a1-6)]Man(b1-4)GlcNAc(b1-4)GlcNAc
How it was run: as §1

[24] = biological target: GlcNAc(b1-2)[GlcNAc(b1-4)]Man(a1-3)[GlcNAc(b1-4)][GlcNAc(b1-2)Man(a1-6)]Man(b1-4)GlcNAc(b1-4)GlcNAc
How it was run: as §1

[25] = biological target: GlcNAc(b1-2)[GlcNAc(b1-4)]Man(a1-3)[GlcNAc(b1-4)][GlcNAc(b1-2)[GlcNAc(b1-6)]Man(a1-6)]Man(b1-4)GlcNAc(b1-4)GlcNAc
How it was run: as §1

[26] = biological target: GlcNAc(b1-2)[GlcNAc(b1-4)]Man(a1-3)[GlcNAc(b1-4)][GlcNAc(b1-2)[GlcNAc(b1-6)]Man(a1-6)]Man(b1-4)GlcNAc(b1-4)[Fuc(a1-6)]GlcNAc
How it was run: as §1

[27] = biological target: GlcNAc(b1-2)[GlcNAc(b1-6)]Man(a1-6)[GlcNAc(b1-2)Man(a1-3)]Man(b1-4)GlcNAc(b1-4)GlcNAc
How it was run: as §1

[28] = biological target: GlcNAc(b1-2)[GlcNAc(b1-6)]Man(a1-6)[GlcNAc(b1-2)Man(a1-3)]Man(b1-4)GlcNAc(b1-4)[Fuc(a1-6)]GlcNAc
How it was run: as §1

B1: SpnanA (Streptococcus pneumoniae), P62575 (protein)
chain: MVIEKEDVETNASNGQRVDLSSELDKLKKLENATVHMEFKPDAKAPAFYNLFSVSSATKKDEYFTMAVYNNTATLEGRGSDGKQFYNNYNDAPLKVKPGQWNSVTFTVEKPTAELPKGRVRLYVNGVLSRTSLRSGNFIKDMPDVTHVQIGATKRANNTVWGSNLQIRNLTVYNRALTPEEVQKRS
[1]
  glycan array binding signal (z-score): -0.107
[2]
  glycan array binding signal (z-score): -0.252
[3]
  glycan array binding signal (z-score): -0.33
GalNAc(b1-3)Gal
  glycan array binding signal (z-score): -0.257
[4]
  glycan array binding signal (z-score): -0.114
[5]
  glycan array binding signal (z-score): -0.288
[6]
  glycan array binding signal (z-score): -0.324
GalNAc(b1-3)GalNAc
  glycan array binding signal (z-score): -0.139
GalNAc(b1-4)Gal(b1-4)Glc
  glycan array binding signal (z-score): -0.198
GalNAc(b1-4)GlcNAc
  glycan array binding signal (z-score): 0.178
[7]
  glycan array binding signal (z-score): -0.214
GalNAc(b1-4)GlcNAc6S
  glycan array binding signal (z-score): -0.095
GalNAc(b1-6)GalNAc
  glycan array binding signal (z-score): -0.298
GalNAc3S(b1-4)GlcNAc
  glycan array binding signal (z-score): -0.342
GalNAc3S(b1-4)GlcNAc3S
  glycan array binding signal (z-score): -0.288
GalNAc4S6S(b1-4)GlcNAc
  glycan array binding signal (z-score): -0.292
GalNAc6S(b1-4)GlcNAc
  glycan array binding signal (z-score): -0.265
Glc(a1-4)Glc
  glycan array binding signal (z-score): -0.28
[8]
  glycan array binding signal (z-score): -0.069
Glc(a1-6)Glc(a1-6)Glc
  glycan array binding signal (z-score): -0.303
[9]
  glycan array binding signal (z-score): 0.035
Glc(b1-4)Glc
  glycan array binding signal (z-score): -0.21
Glc(b1-6)Glc
  glycan array binding signal (z-score): -0.304
GlcA(b1-3)Gal
  glycan array binding signal (z-score): -0.272
GlcA(b1-3)GlcNAc
  glycan array binding signal (z-score): 6.22
GlcA(b1-6)Gal
  glycan array binding signal (z-score): -0.213
[10]
  glycan array binding signal (z-score): -0.274
[11]
  glycan array binding signal (z-score): -0.318
[12]
  glycan array binding signal (z-score): -0.197
[13]
  glycan array binding signal (z-score): -0.123
[14]
  glycan array binding signal (z-score): -0.293
[15]
  glycan array binding signal (z-score): -0.204
[16]
  glycan array binding signal (z-score): -0.207
[17]
  glycan array binding signal (z-score): 0.295
[18]
  glycan array binding signal (z-score): -0.33
[19]
  glycan array binding signal (z-score): -0.315
[20]
  glycan array binding signal (z-score): -0.229
[21]
  glycan array binding signal (z-score): 0.395
[22]
  glycan array binding signal (z-score): -0.237
[23]
  glycan array binding signal (z-score): -0.266
[24]
  glycan array binding signal (z-score): -0.23
[25]
  glycan array binding signal (z-score): -0.264
[26]
  glycan array binding signal (z-score): -0.363
[27]
  glycan array binding signal (z-score): -0.227
[28]
  glycan array binding signal (z-score): -0.34
